About 2,200 (0.71%) of roughly 310,000 compounds showed an effect of 50% or more. The effect is printed as a negative number. The list shows a part of the results.
Each compound was assayed against human ether-à-go-go-related gene (hERG) potassium channel (human, UniProt Q12809) (assay: primary screen, population patch clamp on CHO cells stably expressing hERG).
Sequence of human ether-à-go-go-related gene (hERG) potassium channel (Q12809 whole entry, looked up): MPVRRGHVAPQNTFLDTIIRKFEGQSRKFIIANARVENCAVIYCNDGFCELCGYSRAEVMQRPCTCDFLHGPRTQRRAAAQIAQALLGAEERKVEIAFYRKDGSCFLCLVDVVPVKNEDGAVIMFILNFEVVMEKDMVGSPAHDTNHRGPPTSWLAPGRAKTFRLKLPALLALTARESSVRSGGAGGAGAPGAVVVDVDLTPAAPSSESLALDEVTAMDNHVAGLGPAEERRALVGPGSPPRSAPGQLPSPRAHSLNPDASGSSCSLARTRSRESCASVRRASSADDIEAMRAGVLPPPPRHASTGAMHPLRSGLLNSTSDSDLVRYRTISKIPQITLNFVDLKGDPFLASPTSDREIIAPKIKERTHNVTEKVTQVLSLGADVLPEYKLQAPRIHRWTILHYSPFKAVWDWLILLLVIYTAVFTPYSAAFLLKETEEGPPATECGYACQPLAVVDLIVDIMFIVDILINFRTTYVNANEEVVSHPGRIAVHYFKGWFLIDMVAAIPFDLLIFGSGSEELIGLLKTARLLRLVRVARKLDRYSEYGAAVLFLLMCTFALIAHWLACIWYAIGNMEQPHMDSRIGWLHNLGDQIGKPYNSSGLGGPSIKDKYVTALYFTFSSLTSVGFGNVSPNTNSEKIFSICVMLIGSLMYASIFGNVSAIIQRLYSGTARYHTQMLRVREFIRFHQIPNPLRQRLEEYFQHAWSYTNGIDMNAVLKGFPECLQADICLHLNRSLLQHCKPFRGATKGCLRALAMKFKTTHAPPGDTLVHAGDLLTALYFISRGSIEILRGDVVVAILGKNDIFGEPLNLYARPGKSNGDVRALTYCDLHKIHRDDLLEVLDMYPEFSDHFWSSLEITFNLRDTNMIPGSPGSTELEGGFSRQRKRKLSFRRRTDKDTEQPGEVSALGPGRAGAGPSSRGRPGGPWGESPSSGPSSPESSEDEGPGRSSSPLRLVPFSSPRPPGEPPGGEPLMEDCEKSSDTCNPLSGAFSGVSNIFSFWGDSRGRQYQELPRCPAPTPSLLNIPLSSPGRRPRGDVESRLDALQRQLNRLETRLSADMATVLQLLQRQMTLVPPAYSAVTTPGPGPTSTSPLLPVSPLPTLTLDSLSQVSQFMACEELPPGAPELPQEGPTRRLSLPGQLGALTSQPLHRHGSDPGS

| Structure (SMILES) | hERG current change (%, negative = inhibition) at 1uM [%] |
| --- | --- |
| COCCN(CC1CCCN(C2Cc3ccccc3C2)C1)C(=O)CCC(F)(F)F (stereo not drawn) | -6.73 |
| CCN(CC)C(=O)C1CC(=O)N(c2ccc(OC)cc2)C1c1ccc(OC)cc1 (stereo not drawn) | 16 |
| CCOc1ccc(NC(=O)Nc2ccc(Br)cn2)cc1 | 7.95 |
| Cc1ccccc1C(=O)N1CC(=O)Nc2ccc(F)cc2C1c1ccc(F)cc1 (stereo not drawn) | 6.19 |
| O=C(Cn1cnc2c(cnn2-c2ccccc2)c1=O)NC1CCCC1 | -10.7 |
| CCN(C(=O)COc1cc(OC)ccc1C(C)=O)C1CCS(=O)(=O)C1 (stereo not drawn) | 14.9 |
| CCC(C(=O)Nc1nc(C)c(C)s1)c1ccccc1 (stereo not drawn) | 17.8 |
| COc1ccc(Nc2ncnc3c2c(C)c(C)n3CCCN(C)C)cc1 | 4.94 |
| CCOC(=O)/C(C(=O)Nc1ccccc1Cl)=C1/NC(C)(C)Cc2ccccc21 | 6.22 |
| Cc1ccc(C)c(N2CCN(C(=O)CCc3nc4ccccc4[nH]3)CC2)c1 | 11.5 |
| O=C(c1cc(COc2ccc(F)cc2F)on1)N1CCOCC1 | 14.2 |
| Cc1ccc(C(=O)NC(N2CCCC2)C(Cl)(Cl)Cl)cc1 (stereo not drawn) | 4.37 |
| CC[C@H](C)C(N)c1cn(C(CCCN=C(N)N)C(=O)N2CCNCC2)nn1 (stereo partly drawn) | 11.4 |
| Cc1ccc(/C(O)=C2\C(=O)C(=O)N(CCN(C)C)C2c2ccccc2F)cc1 (stereo not drawn) | -6.65 |
| COc1ccc(NS(=O)(=O)c2cc(NC(=O)c3ccc(C)o3)ccc2N2CCCCC2)cc1 | 9 |
| CC(=O)Nc1ccc(OC(=O)c2cc([N+](=O)[O-])ccc2Cl)cc1 | 2.21 |
| C=C(C)C1CC=C(C)/C(=N/NC(=O)c2ccc(NC(=O)CC)cc2)C1 (stereo not drawn) | -7.98 |
| O=C(c1ccccc1)C1NC1c1ccccc1 (stereo not drawn) | 11.3 |
| Cc1cc(C)cc(NC(=O)[C@@H](NC(=O)c2ccco2)C(C)C)c1 | 11.1 |
| Cc1coc2cc3oc(=O)c(CCC(=O)N4C[C@H]5C[C@@H](C4)c4cccc(=O)n4C5)c(C)c3cc12 | -16.8 |
| N/C(=N\OC(=O)c1ccccc1Cl)c1ccc(Cl)cc1 | -5.66 |
| Cc1cc(C)nc(NC(=O)c2ccc(OC(C)C)cc2)n1 | 11.8 |
| CC1CCCCC1NC(=O)COC(=O)c1ccc(S(=O)(=O)NCc2ccco2)cc1 (stereo not drawn) | 0.0932 |

| Structure (SMILES) | hERG current change (%, negative = inhibition) at 1uM [%] |
| --- | --- |
| CC(=O)c1ccccc1OC(=O)c1ccc(-c2ccccc2)cc1 | 9.87 |
| Cc1ccc(N(CC(=O)N2CCc3ccccc3C2)S(C)(=O)=O)cc1 | 1.69 |
| Cc1ccc(C(=O)OC(C)C(=O)Nc2ccc(Cl)cn2)s1 (stereo not drawn) | 7.21 |
| CCCCSCCCNC(=O)Nc1cccc(OC)c1 | 13.1 |
| COc1ccc(NC(=O)c2c(N)no[n+]2[O-])c(OC)c1 | 4.59 |
| Cn1c(=S)[nH]c2sc3c(c2c1=O)CCC(C(C)(C)C)C3 (stereo not drawn) | 13.9 |
| O=C1Cc2cc(S(=O)(=O)N3CCCCC3)ccc2N1 | 5.78 |
| CC(=O)NCCc1nc2cc(NC(=O)c3ccccc3Cl)ccc2n1C | 12.1 |
| Cn1cc(S(=O)(=O)CC(=O)N2CCc3ccccc32)c2ccccc21 | 3.32 |
| Cc1csc(NC(=O)CSc2nnc(CCNC(=O)c3ccc(Cl)c(Cl)c3)n2C)n1 | 2.76 |
| COc1ccc2[nH]cc(CCn3ccc(O)c(C/C=C/c4ccccc4)c3=O)c2c1 | 6.04 |
| Cc1cc(NC(=O)C2CCCCC2)ccc1NC(=O)c1ccccc1Cl | 10.4 |
| O=c1cc(CSc2nnc(Nc3ccccc3)s2)nc2sccn12 | 11.9 |
| CNC(=S)Nc1ccc(C)c(NC(=S)NC)c1 | 4.04 |
| COCCNC(=O)COC(=O)/C=C/c1cnc2ccccc2n1 | 7.92 |
| O=C(O)C1CC=CCC1C(=O)N1CCN(c2nc(-c3ccccc3)c3ccccc3n2)CC1 (stereo not drawn) | 10.3 |
| COc1cc(C(=O)Nc2ccc3c(c2)OCO3)ccc1OCc1c(C)noc1C | 20.7 |
| CC(C)=CCCC1=CCC(/C(C)=N/NC(N)=O)CC1 (stereo not drawn) | -19 |
| COc1ccc(C(=O)CC(=O)C(=O)Nc2ccc(Cl)cc2)cc1 | 3.93 |
| CCOc1ccc(CSC(=N)N)cc1Cl.Cl | 12.9 |
| S=C(NCc1ccco1)Nc1cc(-c2ccccc2)[nH]n1 | -14.6 |
| Cc1cccc(N(Cc2ccccc2)C(=O)c2ccccc2F)c1 | 8.37 |
| Cc1ccc(NC(=O)c2cccc(NC3=NC4CS(=O)(=O)CC4S3)c2)cc1 (stereo not drawn) | 6.56 |

| Structure (SMILES) | hERG current change (%, negative = inhibition) at 1uM [%] |
| --- | --- |
| Cc1ccc(CN(Cc2ccco2)C(=O)c2ccco2)cc1 | 7.66 |
| O=C(COC(=O)c1ccccn1)c1ccc([N+](=O)[O-])cc1 | 3.17 |
| CC(O)c1nc2ccccc2n1CCCOc1ccccc1 (stereo not drawn) | 13.7 |
| COc1ccc(NS(=O)(=O)c2cc(C(=O)OC(C)C(=O)N3CCOCC3)ccc2Cl)cc1 (stereo not drawn) | 14.8 |
| O=C(N/N=C/C(Br)=C/c1ccccc1)NC1CCCCC1 | 9.96 |
| Cc1ccc(C)c(-n2c(-c3ccc(Br)cc3)csc2=NC(=O)c2ccccc2F)c1 | 10.1 |
| O=C(Nc1ccccc1)C1CC2CCCC(C1)C2=O (stereo not drawn) | 1.67 |
| O=C(O)Cn1ncc2ccccc2c1=O | 13.6 |
| O=C(NCCC(c1ccccc1)c1ccccc1)c1ccc(Br)o1 | 6.74 |
| O=[N+]([O-])c1cnc2ccccc2c1 | 0.449 |
| CCc1ccc2oc(C(=O)N3CCN(c4ccc(OC)cc4)CC3)cc(=O)c2c1 | 1.45 |
| CCn1c(SCC(=O)Nc2nc(C)cs2)nnc1-c1ccncc1 | 8.16 |
| CN1CCSc2ccc(C(=O)Nc3cccc(F)c3)cc21 | -2.18 |
| COc1ccc(F)cc1S(=O)(=O)NCc1cc(=O)n(C)c(=O)n1C | 15 |
| CCN(c1cccc(C)c1)c1nc2ccsc2c(=O)s1 | 3.58 |
| Cc1cccc(NC(=O)CCC2CCN(C(=O)C3CC=CCC3)CC2)c1 (stereo not drawn) | 6.89 |
| CC(=O)c1cccc(OCc2cc(C(=O)NC(C)Cc3cccnc3)no2)c1 (stereo not drawn) | 0.518 |
| Br.C=CCN1CCc2cccc3c2[C@H]1Cc1ccc(O)c(O)c1-3 | 8.51 |
| Cc1noc(C)c1S(=O)(=O)N1CCC(C(=O)Nc2ccc(OC(F)(F)F)cc2)CC1 | 7.5 |
| COc1ccc(CNC(=O)C(C)Cc2ccccc2)cc1O (stereo not drawn) | 15 |
| Cc1cc(C)n(-c2ccccc2[N+](=O)[O-])n1 | 12 |
| COc1ccc(CCC(=O)OCC(=O)Nc2ccccc2)cc1 | 16.5 |
| Cn1c(=O)c([N+](=O)[O-])c(NCC(O)c2ccccc2)c2ccccc21 (stereo not drawn) | 7.39 |

| Structure (SMILES) | hERG current change (%, negative = inhibition) at 1uM [%] |
| --- | --- |
| Cc1cc(C(=O)Cn2nnc3ccccc3c2=O)c(C)n1-c1ccccc1F | 9.45 |
| CCOc1ccc(/C=C2\SC(=O)N(c3ccc(O)cc3)C2=O)cc1OC | 9.01 |
| Cc1noc(NS(=O)(=O)c2ccc(NC(=O)c3ccc(Br)o3)cc2)c1C | 15.9 |
| Cc1cc2cc(CN(Cc3cccs3)S(=O)(=O)c3ccc4c(c3)OCCO4)c(=O)[nH]c2cc1C | 10.9 |
| CCOc1ccc(N2CC(C(=O)OCC(=O)NCc3ccccc3)CC2=O)cc1 (stereo not drawn) | -12.8 |
| N#Cc1c(N)nc(SCC(=O)C23CC4CC(CC(C4)C2)C3)c(C#N)c1-c1ccc(Cl)cc1 | 14.6 |
| COc1ccc(C(=O)NC(=S)Nc2ccccc2N2CCCCC2)cc1[N+](=O)[O-] | 2.83 |
| O=C(Cc1ccc(-c2ccccc2)cc1)NCc1cccnc1 | -20.7 |
| O=Cc1cn(-c2ccccc2)nc1-c1cc2ccccc2oc1=O | 9.74 |
| Fc1cccc(Nc2nc(Cl)nc(Cl)n2)c1 | 7.77 |
| Cn1cc(/C=C/C(=O)N2CCCC(C(=O)c3ccc(C(C)(C)C)cc3)C2)cn1 (stereo not drawn) | 2.3 |
| Cc1onc(-c2ccccc2)c1C(=O)Nc1nc(-c2ccccc2)cs1 | -8.54 |
| COC(=O)c1ccccc1NC(=O)c1nc2nc(C)cc(C)n2n1 | 9.64 |
| CC(=O)Nc1ccc(OCC(O)CN2CCN(c3cc(Cl)ccc3C)CC2)cc1 (stereo not drawn) | 1.43 |
| Nc1cc(-c2cccc(Br)c2)nn1Cc1ccccc1 | 6.44 |
| O=C(NCCN1CCOCC1)C1CCC(=O)N1C1CCCCC1 (stereo not drawn) | 6.4 |
| Fc1ccc(-n2ncc3c(SCc4cccnc4)ncnc32)cc1 | 8.59 |
| Cc1ccc(Cl)cc1NC(=O)CNCC(c1ccccc1)N(C)C.O=C(O)C(=O)O (stereo not drawn) | 5.69 |
| CCC1ON(c2ccccc2)C2c3nc4ccccc4n3CC12 (stereo not drawn) | 14.1 |
| CCn1ncc(-c2cc(C(=O)O)no2)c1C | 9.66 |
| CCc1cc(=O)[nH]c(SCC(=O)Nc2ccc3c(c2)OCCO3)n1 | 12.4 |
